In all, about 270,000 compounds went through this assay and about 620 (0.23%) were called active. Inconclusive results, whose numbers are uncertain, are shown with a selection of clear calls. The call rests on the fitted dose curve; in most records, active means well fitted inhibition curve with a large enough effect in the polarisation, with a control signal flat (not every such curve was filed as active); inconclusive means small, poorly fitted or top-dose-only effect, or effect the other way, or a change in a side signal; inactive means no such curve, though single readings can be large or run the other way; the % refers to the polarisation. Potencies of inconclusive entries are doubtful fits and often do not repeat. “Side channel” marks fits to a control or component signal instead of the main read-out.
molecular target: Menin (Homo sapiens) (UniProt O00255); assay: qHTS Assay for Inhibitors Targeting the Menin-MLL Interaction in MLL Related Leukemias: Competition With Texas Red Labeled MLL-derived Mutant Peptide; details: fluorescence polarization; series mostly up to 61.6 µM
Chain of UniProt O00255 (O00255 whole entry, looked up): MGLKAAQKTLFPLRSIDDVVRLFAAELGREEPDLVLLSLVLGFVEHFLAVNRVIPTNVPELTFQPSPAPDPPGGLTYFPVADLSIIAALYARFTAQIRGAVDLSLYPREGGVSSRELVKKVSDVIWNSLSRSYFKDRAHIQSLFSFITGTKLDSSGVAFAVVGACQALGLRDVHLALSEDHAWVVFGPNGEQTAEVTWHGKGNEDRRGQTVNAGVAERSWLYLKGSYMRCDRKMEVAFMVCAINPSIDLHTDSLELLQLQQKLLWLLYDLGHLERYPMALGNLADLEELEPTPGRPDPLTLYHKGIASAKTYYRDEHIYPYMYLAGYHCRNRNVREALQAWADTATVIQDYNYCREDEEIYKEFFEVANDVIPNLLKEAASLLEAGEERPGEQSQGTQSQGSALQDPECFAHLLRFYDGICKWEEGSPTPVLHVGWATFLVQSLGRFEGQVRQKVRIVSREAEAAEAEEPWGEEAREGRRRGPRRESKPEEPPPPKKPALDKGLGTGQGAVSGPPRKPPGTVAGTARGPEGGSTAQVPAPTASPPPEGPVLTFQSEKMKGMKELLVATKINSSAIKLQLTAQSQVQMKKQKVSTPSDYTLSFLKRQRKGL
Potency means the concentration at half of the fitted maximal effect; tags describe the fitted curve by direction and shape or compound fluorescence and quenching.

Row | SMILES | Potency
1 | N=C1SCC(=O)N1c1ncc(Cc2cccc(Cl)c2)s1 | inconclusive: 22.4 µM [quencher, side channel, single point]
2 | C=CCn1c(COc2ccccc2F)nnc1SCC(=O)Nc1cc2oc3ccccc3c2cc1OC | inconclusive: 11.2 µM [quencher, side channel, partial curve]
3 | O=C(NN=C1CCN(Cc2ccccc2)CC1)c1cc2ccccc2cc1O | inconclusive: 10 µM [quencher, side channel, partial curve]
4 | CCN(CC)CCN(C(=O)c1cc(Cl)sc1Cl)c1nc2cc3c(cc2s1)OCO3 | inconclusive: 39.8 µM [fluorescent, side channel, single point]
5 | COC(=O)CCC(=O)OC1(C)C(=O)C2=CN(C3CC3)C(c3ccc(OC)cc3)=CC2=C(Br)C1=O (stereo not given) | inconclusive: 3.16 µM [inhibitor, partial curve]
6 | CC(=O)Nc1cccc2ncccc12 | inconclusive: 22.4 µM [inhibitor, partial curve]
7 | NC(=O)c1ccc(N=Nc2c(-c3ccccc3)[nH]n(-c3ccccc3)c2=O)cc1 | inconclusive: 2.82 µM [quencher, side channel, full curve]
8 | CCc1ccc(N2CC(C(=O)Nc3ccc(F)cc3)CC2=O)cc1 (stereo not given) | inconclusive: 39.8 µM [fluorescent, side channel, single point]
9 | COc1ccc(OC)c(CN2CCC(C(=O)N(C)CCc3ccc(OC)c(OC)c3)CC2)c1 | inconclusive: 2 µM [fluorescent, side channel, full curve]
10 | CCc1nnc(NC(=O)CSc2nnc(COc3ccccc3)n2-c2ccc(C)cc2)s1 | inconclusive: 25.1 µM [fluorescent, side channel, partial curve]
11 | O=C(N/N=C/c1cc(Br)c(O)c(Br)c1)c1cccc(C(F)(F)F)c1 | inconclusive: 39.8 µM [quencher, single point]
12 | COc1cc(/C=N\NC(=O)c2ccc(-c3ccccc3)cc2)cc(OC)c1O | inconclusive: 25.1 µM [quencher, side channel, partial curve]
13 | Cc1cc(C)c(C(=O)CSc2nnc(-c3ccccc3Br)o2)cc1C | inconclusive: 14.1 µM [inhibitor, partial curve]
14 | Cc1cccc(/C=C/C(=O)c2cc(Br)ccc(=O)c2O)c1 | inconclusive: 22.4 µM [quencher, side channel, single point]
15 | O=[N+]([O-])c1ccc(S(=O)(=O)Nc2ccc(-c3csc(-c4ccccc4)n3)cc2)cc1 | inconclusive: 6.31 µM [quencher, side channel, partial curve]
16 | Cc1ccc(S(=O)(=O)c2cc(N3CCOCC3)nc(-c3ccccc3)n2)cc1 | inconclusive: 3.16 µM [inhibitor, single point]
17 | CCOc1ccccc1C(=O)Nc1cc(C(=O)NCCc2ccccc2)ccc1Cl | inconclusive: 17.8 µM [fluorescent, side channel, partial curve]
18 | CCc1ccc2nc(N(CCCN(C)C)C(=O)c3ccc4c(c3)OCCO4)sc2c1 | inconclusive: 5.62 µM [fluorescent, side channel, full curve]

Row | SMILES | Potency
19 | CCCCN1CN(S(=O)(=O)c2cccs2)c2nc3ccccc3nc21 | inactive
20 | O=C(Nc1ccccc1)c1oc2ccccc2c1NC(=O)C1CC1 | inconclusive: 10 µM [quencher, side channel, partial curve]
21 | CCOC(=O)N1CCC(NC(=O)c2cccnc2SC)CC1 | inconclusive: 39.8 µM [inhibitor, single point]
22 | Cc1c(CCOC(=O)C23CC4CC(CC(C)(C4)C2)C3)sc[n+]1CC(=O)c1ccccc1 | inconclusive: 11.2 µM [fluorescent, side channel, partial curve]
23 | Cc1cc([N+](=O)[O-])ccc1NCc1ccccc1 | inconclusive: 20 µM [quencher, side channel, single point]
24 | CCC1CCCCN1CCCNC(=O)C1CCCN(S(=O)(=O)N2CC(C)CC(C)C2)C1 (stereo not given) | inconclusive: 0.316 µM [inhibitor, full curve, poor fit]
25 | Cc1ccccc1CN1CCN(c2nc3ccccc3s2)CC1 | inconclusive: 12.6 µM [fluorescent, side channel, partial curve]
26 | COc1cccc(NC(=S)NC(=O)/C=C/c2ccco2)c1 | inconclusive: 20 µM [quencher, side channel, partial curve]
27 | COc1cc(/C=C2\SC(=S)N(CC(=O)Nc3cccnc3)C2=O)cc(OC)c1OC | inconclusive: 2.82 µM [quencher, side channel, partial curve]
28 | CC1=C(C(=O)Nc2ccccc2)C2(CCCCC2)C(C#N)=C(S)N1 | inconclusive: 39.8 µM [quencher, side channel, single point]
29 | Cc1ccc(Nc2nc3ccccc3n3cnnc23)cc1Cl | inconclusive: 2.82 µM [quencher, side channel, full curve]
30 | COc1ccc(C(=O)c2c(C(F)(F)F)oc3c2C(=O)c2ccccc2C3=O)cc1 | inconclusive: 39.8 µM [quencher, side channel, single point]
31 | CCn1c(SCC(=O)NNC(=O)c2ccc(OC)cc2)nnc1-c1ccco1 | inconclusive: 7.94 µM [quencher, side channel, partial curve]
32 | Cc1cc(C)cc(NC(=S)NCc2ccc3[nH]c4c(c3c2)CCCC4)c1 | inconclusive: 12.6 µM [quencher, side channel, partial curve]
33 | CCOc1ccc(S(=O)(=O)Nc2nc3ccccc3nc2Cl)cc1 | inconclusive: 12.6 µM [quencher, side channel, partial curve]
34 | O=C(Nc1nc2c(Cl)cccc2s1)c1ccc([N+](=O)[O-])o1 | inconclusive: 20 µM [quencher, partial curve]
35 | O=C(Cn1cnc2scc(-c3cccc([N+](=O)[O-])c3)c2c1=O)NCc1ccco1 | inconclusive: 28.2 µM [quencher, side channel, single point]

— PubChem BioAssay AID1768 (National Center for Advancing Translational Sciences (NCATS), 2009)
